# The supplement of paper PMC10037445
# In all, about 2,900 compounds were measured (“NF-kB SEAP reporter activity, fold change vs agonist alone”: median about 0.99, highest 2% from about 2.6 on). Some of the results follow.
# Key:
# RAW-Dual [1] = test: NF-kB SEAP reporter activity, fold change vs agonist alone; cytotoxicity flag (confluency mask): not cytotoxic; higher = enhanced NF-kB activity
# How it was run: (§1)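 Cytotoxic wells were those whose IncuCyte confluency was below 70% of agonist controls in both mask sets. The cells were RAW-Dual macrophages at 50,000 cells/well in DMEM on 384-well plates, dosed with 50 nL of library stock by pin tool, stimulated with a PRR agonist 1 h later, and kept at 37 °C, 5% CO2 for 20 hours. IRF and NF-κB reporter activity, as fold change over agonist-alone wells, came from supernatant read by QuantiLuc luminescence and QuantiBlue absorbance, respectively.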
# RAW-Dual [2] = test: NF-kB SEAP reporter activity, fold change vs agonist alone; higher = enhanced NF-kB activity; settings: library stock concentration (final ~1000-fold dilution): 10 mM
# How it was run: as §1
# RAW-Dual [3] = test: NF-kB SEAP reporter activity, fold change vs agonist alone; cytotoxicity flag (confluency mask): cytotoxic (confluency <70% of control); higher = enhanced NF-kB activity
# How it was run: as §1
# [4] = agonist: ODN 1826 (TLR9) 0.5 ug/mL
# [5] = agonist: Pam2CSK4 (TLR2/6) 0.1 ug/mL
# [6] = agonist: Pam3CSK4 (TLR2/1) 0.1 ug/mL
# [7] = cytotoxicity flag (confluency mask): not cytotoxic, agonist: Imiquimod (TLR7) […]
# [8] = cytotoxicity flag (confluency mask): not cytotoxic, agonist: MPLA (TLR4) […]
# [9] = cytotoxicity flag (confluency mask): cytotoxic (confluency <70% of control), agonist: Imiquimod (TLR7) […]
# [10] = cytotoxicity flag (confluency mask): cytotoxic (confluency <70% of control), agonist: MPLA (TLR4) […]
smiles,measurement,setting,value
COc1cc(N2CCC(N3CCN(C)CC3)CC2)ccc1Nc1ncnc(Nc2ccccc2S(=O)(=O)C(C)C)n1 (library stock concentration (final ~1000-fold dilution): 10 mM),NF-kB SEAP reporter activity,RAW-Dual [1]; agonist: LPS (TLR4) 0.1 ug/mL,5.53
COc1ccc(CC2c3cc(OC)c(OC)cc3CC[N+]2(C)CCC(=O)OCCCCCOC(=O)CC[N+]2(C)CCc3cc(OC)c(OC)cc3C2Cc2ccc(OC)c(OC)c2)cc1OC (stereo not drawn) (library stock concentration (final ~1000-fold dilution): 10 mM),NF-kB SEAP reporter activity,RAW-Dual [1]; agonist: LPS (TLR4) 0.1 ug/mL,0.558
same,NF-kB SEAP reporter activity,RAW-Dual [1]; [4],0.627
same,NF-kB SEAP reporter activity,RAW-Dual [1]; [5],0.545
same,NF-kB SEAP reporter activity,RAW-Dual [1]; [6],0.686
COc1ccc(CC2c3cc(OC)c(OC)cc3CC[N+]2(C)CCC(=O)OCCCCCOC(=O)CC[N+]2(C)CCc3cc(OC)c(OC)cc3C2Cc2ccc(OC)c(OC)c2)cc1OC (stereo not drawn),NF-kB SEAP reporter activity,RAW-Dual [2]; [7],1.05
same,NF-kB SEAP reporter activity,RAW-Dual [2]; [8],0.871
CC(C(=O)O)c1ccc2c(c1)CC(=O)c1ccccc1S2 (stereo not drawn),NF-kB SEAP reporter activity,RAW-Dual [2]; [7],0.939
same,NF-kB SEAP reporter activity,RAW-Dual [2]; [8],0.989
CC(C(=O)O)c1ccc2c(c1)CC(=O)c1ccccc1S2 (stereo not drawn) (library stock concentration (final ~1000-fold dilution): 10 mM),NF-kB SEAP reporter activity,RAW-Dual [1]; agonist: LPS (TLR4) 0.1 ug/mL,1.44
same,NF-kB SEAP reporter activity,RAW-Dual [1]; [4],1.02
same,NF-kB SEAP reporter activity,RAW-Dual [1]; [5],1.26
same,NF-kB SEAP reporter activity,RAW-Dual [1]; [6],1.28
CN(CCNc1ccnc2cc(Cl)ccc12)CCNc1ccnc2cc(Cl)ccc12.Cl.Cl.Cl (library stock concentration (final ~1000-fold dilution): 10 mM),NF-kB SEAP reporter activity,RAW-Dual [3]; agonist: LPS (TLR4) 0.1 ug/mL,4.28
same,NF-kB SEAP reporter activity,RAW-Dual [3]; [4],0.547
same,NF-kB SEAP reporter activity,RAW-Dual [3]; [5],1.63
same,NF-kB SEAP reporter activity,RAW-Dual [3]; [6],2.17
CN(CCNc1ccnc2cc(Cl)ccc12)CCNc1ccnc2cc(Cl)ccc12.Cl.Cl.Cl,NF-kB SEAP reporter activity,RAW-Dual [2]; [9],0.958
same,NF-kB SEAP reporter activity,RAW-Dual [2]; [10],2.39
COc1cc(O)c2c(=O)cc(-c3ccc(O)cc3)oc2c1,NF-kB SEAP reporter activity,RAW-Dual [2]; [7],1.14
same,NF-kB SEAP reporter activity,RAW-Dual [2]; [8],1.24
COc1cc(O)c2c(=O)cc(-c3ccc(O)cc3)oc2c1 (library stock concentration (final ~1000-fold dilution): 10 mM),NF-kB SEAP reporter activity,RAW-Dual [1]; agonist: LPS (TLR4) 0.1 ug/mL,1.38
same,NF-kB SEAP reporter activity,RAW-Dual [1]; [4],1.21
same,NF-kB SEAP reporter activity,RAW-Dual [1]; [5],1.14
same,NF-kB SEAP reporter activity,RAW-Dual [1]; [6],1.64
COc1cc2c(cc1OC)C1Cc3ccc(OC)c(OC)c3CN1CC2.Cl (stereo not drawn) (library stock concentration (final ~1000-fold dilution): 10 mM),NF-kB SEAP reporter activity,RAW-Dual [1]; agonist: LPS (TLR4) 0.1 ug/mL,1.17
same,NF-kB SEAP reporter activity,RAW-Dual [1]; [4],0.984
same,NF-kB SEAP reporter activity,RAW-Dual [1]; [5],1.2
same,NF-kB SEAP reporter activity,RAW-Dual [1]; [6],1.08
COc1cc2c(cc1OC)C1Cc3ccc(OC)c(OC)c3CN1CC2.Cl (stereo not drawn),NF-kB SEAP reporter activity,RAW-Dual [2]; [7],0.869
same,NF-kB SEAP reporter activity,RAW-Dual [2]; [8],0.981
CCN(CC)CCOC(=O)C(c1ccccc1)c1ccccc1.Cl (library stock concentration (final ~1000-fold dilution): 10 mM),NF-kB SEAP reporter activity,RAW-Dual [1]; agonist: LPS (TLR4) 0.1 ug/mL,1.05
same,NF-kB SEAP reporter activity,RAW-Dual [1]; [4],0.803
same,NF-kB SEAP reporter activity,RAW-Dual [1]; [5],0.843
same,NF-kB SEAP reporter activity,RAW-Dual [1]; [6],1.14
CCN(CC)CCOC(=O)C(c1ccccc1)c1ccccc1.Cl,NF-kB SEAP reporter activity,RAW-Dual [2]; [7],0.999
same,NF-kB SEAP reporter activity,RAW-Dual [2]; [8],1.13
Cc1nc(-c2ccc(OCC(C)C)c(C#N)c2)sc1C(=O)O,NF-kB SEAP reporter activity,RAW-Dual [2]; [7],1.1
same,NF-kB SEAP reporter activity,RAW-Dual [2]; [8],1.04
Cc1nc(-c2ccc(OCC(C)C)c(C#N)c2)sc1C(=O)O (library stock concentration (final ~1000-fold dilution): 10 mM),NF-kB SEAP reporter activity,RAW-Dual [1]; agonist: LPS (TLR4) 0.1 ug/mL,1.09
same,NF-kB SEAP reporter activity,RAW-Dual [1]; [4],1.26
same,NF-kB SEAP reporter activity,RAW-Dual [1]; [5],1.13
same,NF-kB SEAP reporter activity,RAW-Dual [1]; [6],1.35
CCCCc1ccc(O)cc1O (library stock concentration (final ~1000-fold dilution): 10 mM),NF-kB SEAP reporter activity,RAW-Dual [1]; agonist: LPS (TLR4) 0.1 ug/mL,1.05
same,NF-kB SEAP reporter activity,RAW-Dual [1]; [4],0.852
same,NF-kB SEAP reporter activity,RAW-Dual [1]; [5],0.993
same,NF-kB SEAP reporter activity,RAW-Dual [1]; [6],1.14
CCCCc1ccc(O)cc1O,NF-kB SEAP reporter activity,RAW-Dual [2]; [8],1.17
CCOP(=O)(OCC)C(=Cc1cc(C(C)(C)C)c(O)c(C(C)(C)C)c1)P(=O)(OCC)OCC,NF-kB SEAP reporter activity,RAW-Dual [2]; [7],1.13
same,NF-kB SEAP reporter activity,RAW-Dual [2]; [8],1.52
CCOP(=O)(OCC)C(=Cc1cc(C(C)(C)C)c(O)c(C(C)(C)C)c1)P(=O)(OCC)OCC (library stock concentration (final ~1000-fold dilution): 10 mM),NF-kB SEAP reporter activity,RAW-Dual [1]; agonist: LPS (TLR4) 0.1 ug/mL,1.35
same,NF-kB SEAP reporter activity,RAW-Dual [1]; [4],1.27
same,NF-kB SEAP reporter activity,RAW-Dual [1]; [5],0.899
same,NF-kB SEAP reporter activity,RAW-Dual [1]; [6],0.793
Cc1cc2c(F)c(Oc3ncnn4cc(OCC(C)OC(=O)C(C)N)c(C)c34)ccc2[nH]1 (stereo not drawn),NF-kB SEAP reporter activity,RAW-Dual [2]; [9],1.98
same,NF-kB SEAP reporter activity,RAW-Dual [2]; [10],1.72
Cc1cc2c(F)c(Oc3ncnn4cc(OCC(C)OC(=O)C(C)N)c(C)c34)ccc2[nH]1 (stereo not drawn) (library stock concentration (final ~1000-fold dilution): 10 mM),NF-kB SEAP reporter activity,RAW-Dual [3]; agonist: LPS (TLR4) 0.1 ug/mL,1.52
same,NF-kB SEAP reporter activity,RAW-Dual [3]; [4],0.94
same,NF-kB SEAP reporter activity,RAW-Dual [3]; [5],0.759
same,NF-kB SEAP reporter activity,RAW-Dual [3]; [6],1.13
Cc1ccc2c(=O)c3cccc(CC(=O)O)c3oc2c1C,NF-kB SEAP reporter activity,RAW-Dual [2]; [7],0.955
same,NF-kB SEAP reporter activity,RAW-Dual [2]; [8],0.964
Cc1ccc2c(=O)c3cccc(CC(=O)O)c3oc2c1C (library stock concentration (final ~1000-fold dilution): 10 mM),NF-kB SEAP reporter activity,RAW-Dual [1]; agonist: LPS (TLR4) 0.1 ug/mL,1.98
same,NF-kB SEAP reporter activity,RAW-Dual [1]; [4],1.09
same,NF-kB SEAP reporter activity,RAW-Dual [1]; [5],1.65
same,NF-kB SEAP reporter activity,RAW-Dual [1]; [6],1.45
CC(C)(c1ccc(OCC(O)CO)cc1)c1ccc(OCC(O)CCl)cc1 (stereo not drawn) (library stock concentration (final ~1000-fold dilution): 10 mM),NF-kB SEAP reporter activity,RAW-Dual [1]; agonist: LPS (TLR4) 0.1 ug/mL,0.908
same,NF-kB SEAP reporter activity,RAW-Dual [1]; [4],0.823
same,NF-kB SEAP reporter activity,RAW-Dual [1]; [5],0.857
same,NF-kB SEAP reporter activity,RAW-Dual [1]; [6],0.782
CC(C)(c1ccc(OCC(O)CO)cc1)c1ccc(OCC(O)CCl)cc1 (stereo not drawn),NF-kB SEAP reporter activity,RAW-Dual [2]; [7],0.976
same,NF-kB SEAP reporter activity,RAW-Dual [2]; [8],1.1
O=C(Nc1ccc(Cl)cc1)c1cc2ccccc2cc1OP(=O)(O)O,NF-kB SEAP reporter activity,RAW-Dual [2]; [7],0.877
same,NF-kB SEAP reporter activity,RAW-Dual [2]; [8],1.04
O=C(Nc1ccc(Cl)cc1)c1cc2ccccc2cc1OP(=O)(O)O (library stock concentration (final ~1000-fold dilution): 10 mM),NF-kB SEAP reporter activity,RAW-Dual [1]; agonist: LPS (TLR4) 0.1 ug/mL,1.08
same,NF-kB SEAP reporter activity,RAW-Dual [1]; [4],0.965
same,NF-kB SEAP reporter activity,RAW-Dual [1]; [5],0.931
same,NF-kB SEAP reporter activity,RAW-Dual [1]; [6],0.763
